From PubChem BioAssay AID757 (NMMLSC, 2007)
Screen size: about 190,000 compounds; about 520 (0.27%) were called active. This list was built around the results that the source calls inconclusive (neither active nor inactive); the mix of calls is not that of the screen.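 How the source made its calls: active means GTP binding activity at least 20 points away from the 100% control level, either lower or higher; inconclusive means compound flagged as likely green fluorescent, judged across all proteins; inactive means the rest.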

biological target: Ras-related C3 botulinum toxin substrate 1 (Homo sapiens) (UniProt P63000); assay: wildtype Rac1 GTP binding modulators, primary screen, biochemical, GST-Rac1 beads, flow cytometry, multiplex (AID 757); settings: fluorescent GTP binding, at 10 µM, actives lie on both sides, 0 = cold GTP competed, 100 = untreated

| SMILES | GTP binding activity (% of control) |
| --- | --- |
| O=C(CC(C(=O)O)c1c[nH]c2ccccc12)c1ccccc1 (centres undefined) | inconclusive: 95% |
| Clc1ccc(-c2csc(N3CCN(c4ccccc4)CC3)n2)cc1 | inconclusive: 89% |
| CCn1cc(C(=O)OCC(=O)c2cc(C)n(-c3ccc(OC(F)F)cc3)c2C)c(=O)c2ccc(C)nc21 | active: 74% |
| Cc1cccc(OCC(=O)OC2CCN(C)CC2)c1 | inconclusive: 103% |
| CCN(CC(=O)Nc1cccc(C(C)=O)c1)S(=O)(=O)c1ccccc1 | inactive: 101% |
| O=C(O)CSC(NC(=O)c1cccnc1)(C(F)(F)F)C(F)(F)F | inconclusive: 104% |
| COc1ccc(C(=O)CN2CCN(c3ccc(F)cc3)CC2)cc1OC | inconclusive: 107% |
| S=C(N/N=C/c1ccc2ncccc2c1)Nc1ccccc1 | inconclusive: 93% |
| CCC/C=N/NC(=O)c1cccc(Br)c1 | inactive: 98% |
| Cn1cnnc1SCC(=O)Nc1nc(-c2ccc(F)cc2)cs1 | inconclusive: 93% |
| COc1ccccc1CNc1n[nH]c(NCc2ccccc2OC)n1 | inconclusive: 106% |
| O=C(Cn1nnc2ccccc21)c1cccc([N+](=O)[O-])c1 | inconclusive: 105% |
| CC(=O)C1=C(C)NC2(O)c3ccccc3C(=O)C12O (centres undefined) | inconclusive: 93% |
| CS(=O)(=O)N1CCC(C(=O)Nc2cccc(Cl)c2)CC1 | inconclusive: 95% |
| CN(C)C(CNC(=O)CNC(=O)c1ccc(Br)cc1)c1ccccc1 (centres undefined) | inactive: 97% |
| COc1ccc(-n2cnc3ccccc32)cc1 | inconclusive: 106% |
| O=S(=O)(Nc1nc2ccccc2[nH]1)c1ccc2ccccc2c1 | inactive: 95% |
| CN(C)/C=C1\C(=O)N(c2ccc(Cl)cc2)CS1(=O)=O | inconclusive: 102% |
| Cc1ccc(S(=O)(=O)/N=C2/C=C(Sc3ncn[nH]3)C(=O)c3ccccc32)c(C)c1 | inconclusive: 91% |
| CCOc1ncccc1C(=O)Nc1ccc(OC)c(S(=O)(=O)N2CCCCC2)c1 | inconclusive: 97% |
| CCOC(=O)C1=NN(C(=O)COc2ccccc2)C(O)(c2ccc(Br)cc2)C1 (centres undefined) | inconclusive: 91% |
| NS(=O)(=O)c1ccc(CNC(=O)C23CC4CC(CC(C4)C2)C3)cc1 | inconclusive: 104% |
| CC(Sc1ccsc1[N+](=O)[O-])C(=O)N1CCN(c2ccccn2)CC1 (centres undefined) | inconclusive: 90% |
| O=C1C(Cc2cccc([N+](=O)[O-])c2)SC(=Nc2ccccc2)N1c1ccccc1 (centres undefined) | inactive: 102% |

| SMILES | GTP binding activity (% of control) |
| --- | --- |
| Cc1[nH]c2ccccc2c1/C=C/C(=O)c1ccccc1 | inconclusive: 114% |
| Cc1cc(N2CCN(C(=O)c3ccco3)CC2)n2nc(-c3cccc(F)c3)cc2n1 | inconclusive: 101% |
| O=C(O)CCC(=O)Nc1ccc(C(=O)OC2CCCCC2)cc1 | inactive: 97% |
| c1csc(-c2ccnc3ncnn23)c1 | inconclusive: 93% |
| O=[N+]([O-])c1cc(-c2ncccn2)c([N+](=O)[O-])s1 | inactive: 95% |
| CNc1nc(N)c(C(=O)C(C)(C)C)s1 | inactive: 97% |
| CC(C)=C1C2CCC1C1C(=O)N(c3nc(-c4ccc(C(C)C)cc4)c(C)s3)C(=O)C21 (centres undefined) | inactive: 97% |
| O=C(OCC(=O)c1ccc(Cl)cc1Cl)c1ccc2c(c1)C(=O)N(c1cccc3ncccc13)C2=O | inconclusive: 86% |
| COc1ccc(Cc2nnc(NC(=O)c3ccco3)s2)cc1 | inconclusive: 103% |
| Cc1ccc(-n2nnc(-c3cc4ccccc4nc3Cl)n2)cc1 | inconclusive: 89% |
| COc1ccc(Br)cc1CNC(=O)C1CCN(S(=O)(=O)N2CCC(C)CC2)CC1 | inactive: 107% |
| Nc1nnc(-c2cc3c(ccc4ccccc43)oc2=O)s1 | inconclusive: 92% |
| CCn1c(SCC(=O)O)nnc1-c1cc2c(C)nn(-c3ccccc3)c2s1 | active: 79% |
| O=c1c2ccccc2nnn1COc1ccc(F)cc1Cl | inconclusive: 89% |
| COC(=O)N/N=C(\C)c1cccc(C(F)(F)F)c1 | inconclusive: 101% |
| CC(C)OCCCn1c(=NC(=O)c2ccncc2)c(C#N)cc2c(=O)n3ccccc3nc21 | inconclusive: 202% |
| Oc1c(C(c2ccccn2)N2CCOCC2)ccc2cccnc12 (centres undefined) | inconclusive: 213% |
| CCOC(=O)CN1C(=O)C(O)=C(C(C)=O)C1c1ccc(F)cc1 (centres undefined) | inconclusive: 103% |
| C/C(N)=C(/C#N)C(=O)COC(=O)c1ccccc1O | inconclusive: 102% |
| COC(=O)CNC(c1ccccc1Cl)c1cc(Br)ccc1NC(=O)CCN1CCOCC1 (centres undefined) | inconclusive: 103% |
| COc1ccc(NC(=O)c2ccc3c(=O)n(-c4ccc(OC)cc4OC)c(=S)[nH]c3c2)c(OC)c1 | inconclusive: 89% |
| Cn1c(NC(=O)c2cc(-c3ccc4c(c3)OCO4)nc3ccccc23)cc(=O)n(C)c1=O | inconclusive: 109% |
| Cc1ccc(-c2nn(-c3cc(N4CCNCC4)ccc3[N+](=O)[O-])c(=O)c3ccccc23)cc1 | inactive: 105% |
| Cc1cc(C(=O)Nc2c[nH]c(=O)[nH]c2=O)ccc1[N+](=O)[O-] | inconclusive: 90% |

| SMILES | GTP binding activity (% of control) |
| --- | --- |
| O=C(COc1ccc2ccccc2c1)NCCc1ccc2c(c1)OCCO2 | inconclusive: 86% |
| Cc1sc2ncn(CC(=O)NCCc3ccccc3)c(=O)c2c1C | inactive: 100% |
| O=C1CCCN1CCCNC(=S)Nc1ccc(Cl)cc1Cl | inactive: 104% |
| O=C(O)c1ccc(CSc2nnc(Cc3ccccc3)o2)cc1 | inconclusive: 98% |
| COc1cccc(NC(=S)NNC(=O)Cn2nc([N+](=O)[O-])cc2C)c1 | inconclusive: 96% |
| Cc1ccc(NC(=O)/C(Cl)=C/c2ccccc2)cc1C | inactive: 99% |
| C/C(N)=C(/C#N)C(=O)CSc1nc2ccccc2n1CC(C)C | inactive: 104% |
| Cc1ccc2c(c1)[C@@H](O)C[C@@H](C)N2N=O | inconclusive: 106% |
| COc1ccc(C)cc1S(=O)(=O)N(CC(=O)O)c1ccc(F)cc1 | inconclusive: 89% |
| N#CC1=C(N)Oc2c(ccc3ccccc23)C1c1ccsc1 (centres undefined) | inconclusive: 97% |
| O=C(CNC(=S)N(CCCN1CCOCC1)Cc1cccs1)N1CCCCCC1 | inactive: 97% |
| CCCC(C(=O)NC1=NCCS1)c1ccccc1 (centres undefined) | inconclusive: 96% |
| O=C(NCCC1=CCCCC1)C(c1ccccc1)c1ccccc1 | inconclusive: 90% |
| CCc1c(C)nc2c(C#N)c[nH]n2c1=O | inconclusive: 80% |
| CC[N+]1(CC)CC2CCC(C)(C1)C2(C)C (centres undefined) | inactive: 108% |
| C=CCNC(=O)COc1ccc(S(=O)(=O)N2CCCC2)cc1 | inconclusive: 93% |
| Cc1ccc(Cc2cnc(NC(=O)/C(C#N)=C/c3ccc(-c4ccc([N+](=O)[O-])cc4)o3)s2)cc1 | inactive: 84% |
| CCCCNC(=O)CN1C(=O)c2cccc(N)c2C1=O | inconclusive: 94% |
| O=C(Nc1cc(S(=O)(=O)Nc2ccccc2Cl)ccc1O)c1sc2cc(Cl)ccc2c1Cl | inactive: 83% |
| COc1ccc(-n2cc(-c3ccccc3)c3c(=O)[nH]cnc32)cc1 | active: 121% [activator] |
| COCCn1c(SCC(=O)Nc2cccc(C)c2)nnc1C(C)C | inconclusive: 103% |
| CCOC(=O)c1sc(=S)n(C)c1NC(=O)c1ccccc1C | inactive: 100% |
| COC(=O)C(=O)/C=C(\O)c1ccc(C)cc1 | inconclusive: 94% |
| C=CCNc1nc(NC(C)(C)CO)nc(OCC)n1 | inconclusive: 109% |

| SMILES | GTP binding activity (% of control) |
| --- | --- |
| CNC(=O)COC(=O)c1cc(F)c(F)cc1Cl | inconclusive: 106% |
| O=C(Nc1nnc(-c2ccco2)s1)C1CCCCC1 | inconclusive: 104% |
| Cc1ccccc1N(CC(=O)N/N=C/c1ccccc1Cl)C(=O)c1ccccc1 | inconclusive: 128% |
| Cc1ccc(C2CC(=O)N(c3ccc(F)cc3)C3=C2C(=O)CCC3)cc1 (centres undefined) | inconclusive: 104% |
| CCSc1nnc(Cc2cc(=O)[nH]c(=O)[nH]2)n1-c1ccc(F)cc1 | inconclusive: 106% |
| O=C(/C=C/c1ccc(Cl)c([N+](=O)[O-])c1)c1cccnc1 | active: 78% |
| Clc1ccccc1-c1ccc(/C=N/Nc2nncc(-c3ccccc3)n2)o1 | active: 79% |
| CCC(C)(C)c1ccc(OCCCC[n+]2ccccc2)c(C(C)(C)CC)c1 | inconclusive: 118% |
| COc1cc2nc(/C=C/c3ccc(N(C)C)cc3)sc2cc1SC | inconclusive: 144% |
| Cc1nn(CCc2n[nH]c(=S)n2C)c(C)c1Br | inconclusive: 104% |
| COc1ccc(C(=O)C2CCCN(Cc3cccc4c3OCO4)C2)cc1OC (centres undefined) | inactive: 101% |
| COCCOC(=O)c1c(C)oc2ccc(OC(=O)c3ccc4c(c3)OCO4)cc12 | active: 75% |
| Brc1ccc(Nc2c3c(nc4ncnn24)CCC3)cc1 | inconclusive: 91% |
| C=CCN1C2CCCC1CC(NC(=S)Nc1ccc(Cl)cc1)C2 (centres undefined) | inactive: 99% |
| Cc1cccc(NC(=O)CC(C)(C)C)c1 | inconclusive: 103% |
| COc1ccc(CN(C)C(=O)COC(=O)c2c(-c3ccccc3Cl)noc2C)cc1 | inactive: 92% |
| COc1cc(O)c(/C=N/NC(=O)c2ccncc2)c(OC)c1[N+](=O)[O-] | inactive: 97% |
| Cc1ccc(O)c(N=Cc2cc(Cc3ccccc3)cc([N+](=O)[O-])c2O)c1 | active: 77% |
| Fc1ccc(-c2[nH]ncc2CN(CC2CCC2)CC2CCCO2)c(F)c1 (centres undefined) | inactive: 97% |
| CCCN1CCN(CCCNC(=O)C2CCCN(c3nc4ccc(OCC)cc4s3)C2)CC1 (centres undefined) | inconclusive: 104% |
| Cc1cc(NC(=O)CSc2nc3cc4c(cc3c(=O)n2CCc2ccccc2)OCO4)no1 | inconclusive: 109% |
| COc1cccc(/C=N/n2c(N)c(S(=O)(=O)c3cccs3)c3nc4ccccc4nc32)c1OC | inactive: 88% |
